Results reported in publication PMC9574860, “Chemical Toolkit for PARK7: Potent, Selective, and High-Throughput” (Journal of Medicinal Chemistry, 2022).
Among all 7,900 compounds or so, about 400 (5.1%) showed an effect of 50% or more. This is one part of the list.

molecular target: Parkinson's disease protein 7 (PARK7/DJ1) (human, UniProt Q99497); assay: primary screen, percent inhibition; read as competition with a fluorescent probe by fluorescence polarization; higher = more effect of the substance; settings: 100 µM
In short: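 Covalent fragments at 100 μM final were incubated 2 h with 0.2 μM PARK7, then 20 nM probe JYQ-107 added for a further 2 h. Fluorescence polarization read at 480/520 nm; relative FP loss versus reference controls gave remaining enzyme activity.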

Chain of Parkinson's disease protein 7 (PARK7/DJ1) (Q99497 whole entry, looked up, the tested form may be a part): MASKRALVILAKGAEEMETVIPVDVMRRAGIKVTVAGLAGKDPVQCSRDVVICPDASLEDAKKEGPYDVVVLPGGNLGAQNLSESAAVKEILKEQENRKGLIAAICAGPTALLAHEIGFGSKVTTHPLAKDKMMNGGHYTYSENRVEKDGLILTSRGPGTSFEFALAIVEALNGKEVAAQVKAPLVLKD

| SMILES | Inhibition % [%] |
| --- | --- |
| C=CC(=O)NC(C)c1nc(Cc2ccccc2)no1 (centres unmarked) | 4.55 |
| C=CC(=O)NC1CCN(c2cnn(C)c2)C1 (centres unmarked) | 33.9 |
| CCn1cc(CCCl)cn1 | 5.4 |
| N#Cc1cc(N2C[C@H](F)C[C@H]2C(N)=O)ccn1 | 15.6 |
| CC1CC(N2CCCC(c3ccn[nH]3)C2)C(=O)O1 (centres unmarked) | 1.38 |
| O=C(CCl)N1N=C(c2cccs2)CC1c1cccs1 (centres unmarked) | 0.318 |
| C=CC(=O)N1CCCCC1CNC(C)=O (centres unmarked) | 3.47 |
| N#Cc1nccc(NCC2CCSCC2)n1 | 5.26 |
| CNC(=O)C(C#N)=Cc1cccc(C)c1C | 7.91 |
| C=CS(=O)(=O)c1ccc(C#N)c(C(F)(F)F)c1 | -2.38 |
| N#Cc1ccc(N2CCC(Cc3ccccn3)CC2)cn1 | 8.15 |
| C#CC(=O)Nc1cnn(C2CCCCO2)c1 (centres unmarked) | 18.6 |
| C=CC(=O)NCC1(c2ccccc2F)CCC1 | 5.16 |
| C=CC(=O)N1CCC(C(=O)[O-])CC1.[Na+] | 4.18 |
| N#Cc1ncn(CC(=O)NC2CCCCC2)n1 | 5.82 |
| O=C1CN(C(=O)C=Cc2cc3ccccc3o2)CCN1 | 5.86 |
| Cc1ccc(N2C[C@H](F)C[C@H]2C(N)=O)nc1C#N | 6.25 |
| N#CC1(CC2CO2)CCC1 (centres unmarked) | 3.78 |
| NC(=O)c1ccsc1NC(=O)CCl | 84.7 |
| N#Cc1nccnc1N1CC2(CCC2)c2c(F)cccc21 | 9.34 |
| COc1ccc(NC(=O)C(C#N)=Cc2ccco2)cc1 | 4.06 |
| O=C(CCl)Nc1nc(-c2cc3ccccc3o2)cs1 | 5.44 |
| Cc1ccn(S(=O)(=O)c2cc(C)c(Cl)cc2C)n1 | 5.92 |
| CCN(CC)C(=O)Oc1cccc(F)c1C#N | 13.8 |
| O=C(C=Cc1ccccn1)N1CCCC(N2CCCC2)C1 (centres unmarked) | 4.3 |

| SMILES | Inhibition % [%] |
| --- | --- |
| CC(C)(CNC(=O)CCl)c1ccccc1 | 16.4 |
| CS(=O)(=O)Nc1ccc(B(O)O)cc1 | 9.91 |
| C=CC(=O)NC1CC(=O)N(C(C)C)C1 (centres unmarked) | 8.51 |
| N#Cc1nc(N2CCCC2CO)ccc1Cl (centres unmarked) | 2.52 |
| CC1(C)SC(=O)NC1=O | 13.1 |
| Cn1cc(CN2CCC=C(F)C2)cc1C#N | 13.5 |
| N#Cc1c(Cl)nc2sccn12 | 4.22 |
| N#CC(=Cc1cnn(Cc2ccccc2)c1)C(=O)O | 4.92 |
| C=CC(=O)N[C@]1(C)C[C@H](C)CC(C)(C)C1 | 9.09 |
| CN(CC1COc2ccccc2O1)C(=O)CCl (centres unmarked) | 96.7 |
| C=CC(=O)N[C@@H]1CCO[C@H]1c1ccc(OC)nc1 (racemic) | 7.53 |
| CCOc1ccccc1OS(=O)(=O)c1ncn(C)c1Cl | 6.17 |
| C=CC(=O)N1CCOCC1c1ncn(Cc2ccccc2)n1 (centres unmarked) | 9.27 |
| O=S(=O)(C=Cc1ccccc1)NC1CCCSC1 (centres unmarked) | 6.78 |
| Cc1ncc(C(=O)NS(=O)(=O)C=Cc2ccccc2)s1 | 12.5 |
| C=CC(=O)NCC(C)(O)c1cnn(C)c1 (centres unmarked) | 7.37 |
| C=CC(=O)N(C)CC1CCCOC1 (centres unmarked) | 3.5 |
| CC(C)C(NC(=O)Cn1cnc(C#N)n1)c1cccs1 (centres unmarked) | -3.14 |
| O=C(CCl)c1ccc(Cl)s1 | 94.6 |
| Cc1cc(B2OC(C)(C)C(C)(C)O2)ccc1S(N)(=O)=O | -0.734 |
| Nc1cc(S(=O)(=O)F)c(F)cc1NC1CC1 | 41.5 |
| C=CC(=O)NC(C)c1nc2ccccc2n1C(F)F (centres unmarked) | 12 |
| OB(O)c1cc(F)ccc1OCC1CCCCO1 (centres unmarked) | 1.56 |
| N#Cc1ccc(N[C@H]2CC[C@@H](C(=O)N3CCCC3)C2)cn1 | 4.36 |
| C=CC(=O)N1CCCCC1c1noc(C2CC2)n1 (centres unmarked) | 29.3 |

| SMILES | Inhibition % [%] |
| --- | --- |
| O=C(CN1CCSC1=O)Nc1cccc(Cl)c1 | 4.9 |
| COCC(C)NS(=O)(=O)C=Cc1ccccc1 (centres unmarked) | 0.573 |
| O=C(CCl)N1CCc2ccc([N+](=O)[O-])cc21 | 5.89 |
| COc1cc(S(=O)(=O)n2ccnc2C)ccc1Cl | 4.92 |
| Cc1nn(C)c(Cl)c1C=CC(=O)N1CCC(CN)CC1.Cl | 15.7 |
| C=CC(=O)N1CCC2(COC2)C1 | 10.9 |
| C=CC(=O)NCc1nc(-c2ccc(F)cc2)c[nH]1 | 8.67 |
| C=CC(=O)N[C@@H]1C[C@H]1C1CCOCC1 (racemic) | 5.38 |
| N#CC(=Cc1cccc(O)c1)c1nnc2n1CCCCC2 | 4.82 |
| C=CC(=O)N1CCCN(c2ccccc2)CC1 | 13.3 |
| O=C(CCl)N1c2ccccc2SCC1c1ccccc1 (centres unmarked) | 1.2 |
| C=CC(=O)N1CC(C2CCCC(C)C2)C1 (centres unmarked) | 7.43 |
| CC(CNc1ccc(C#N)nc1)Cn1cccn1 (centres unmarked) | 6.43 |
| CC1CCCN(C(=O)Cn2cnc(C#N)n2)C1 (centres unmarked) | 3.31 |
| C=CC(=O)N1CCOC2(CCOCC2)CC1 | 7.24 |
| C=CC(=O)N1CCC(c2ccccc2)C1C (centres unmarked) | 13.8 |
| CCC1(O)CCN(c2cccnc2C#N)C1 (centres unmarked) | 15.2 |
| CC1CC(Sc2ccccc2)C(=O)O1 (centres unmarked) | 1.08 |
| C=CC(=O)NC12CC(C(F)(F)F)(C1)C2 | 4.93 |
| CC1(C)OB(c2cccc(Br)c2)OC1(C)C | 1.19 |
| C=CC(=O)NC1CCc2ncc(Br)n2C1 (centres unmarked) | 11.8 |
| O=C(CCl)NCC(=O)c1cccs1 | 15.1 |
| Cc1noc(C)c1-c1csc(CN2C(=O)CCC2=O)n1 | 23.2 |
| C=CC(=O)N1C[C@H](F)C[C@H]1C(=O)N1CCOCC1 | 10.5 |
| O=C(O)c1ccc(CS)cc1 | 17.3 |

| SMILES | Inhibition % [%] |
| --- | --- |
| Cc1ccc(NC(=O)CN2CCSC2=O)cc1F | 3.32 |
| CC(C)(C)C(=O)NNS(=O)(=O)c1ccc(S(=O)(=O)F)cc1 | 6.55 |
| Cc1cc(N2CCCC2)ccc1NC(=O)CCl | 2.66 |
| CN1CCOC(CNS(=O)(=O)C=Cc2ccccc2)C1 (centres unmarked) | 6.48 |
| O=C(Nc1cn[nH]c1)Oc1ccccc1 | 32.9 |
| CCOc1ccc(C(C)(C)C)cc1S(=O)(=O)n1cccn1 | -1.91 |
| Nc1nc(SC2CCOC2=O)nc2sccc12 (centres unmarked) | 10.8 |
| CC1(C)OB(c2ccsc2C#N)OC1(C)C | 1.56 |
| COCCNC(=O)C(C#N)=Cc1c(F)cccc1Cl | 18 |
| N#Cc1nc(C(=O)O)ccc1Cl | 7.31 |
| Sc1nc(CN2CCOCC2)nc2ccccc12 | 5.16 |
| Cc1cc(C=C(C#N)C(N)=O)ccc1Oc1cccnc1 | 2.77 |
| Cn1ccnc1CN(C#N)c1ccc(F)c(Cl)c1 | -3.2 |
| O=C(CCl)N1CC=C(c2c[nH]c3ccccc23)CC1 | 51.5 |
| O=C1OCCC1N1CCCC(c2nc3ccccc3o2)C1 (centres unmarked) | 0.5 |
| Cc1ccc(C=CS(=O)(=O)N2CCNC(=O)C2)cc1 | 10.2 |
| COC(=O)c1cccc(NC(=O)CCl)c1 | 25.2 |
| FC(F)(F)c1ccc(C2CO2)cc1 (centres unmarked) | 5.75 |
| Cc1nn(-c2ccccc2)c(Cl)c1C=CC(=O)N1CCC1 | 22.9 |
| CC(=Cc1ccccc1)C=C(C#N)C(=O)NC1CC1 | 2.94 |
| C=CCNC(=O)C(C#N)=Cc1cc(C)c(O)c(C)c1 | 6.22 |
| C=CC(=O)N1CCC(OCC2CC2)CC1 | -0.254 |
| C=CC(=O)N1CCSC(C(F)(F)F)C1 (centres unmarked) | 3.31 |
| Cc1nc(C#N)c(NC(C)c2ccccc2)o1 (centres unmarked) | 1.91 |
| N#Cc1ccnc(SC2CCOC2=O)c1 (centres unmarked) | 17.8 |

| SMILES | Inhibition % [%] |
| --- | --- |
| CC1(C)OB(c2ccnn2-c2ccccc2)OC1(C)C | 14.9 |
| C=CC(=O)NC1CCN(C(=O)c2ccco2)CC1 | 7.43 |
| CN(C1CCC(CO)CC1)S(=O)(=O)C=Cc1ccccc1 (centres unmarked) | 7.5 |
| O=C(NCC1CCCCC1O)c1cccnc1S (centres unmarked) | 8.44 |
| N#Cc1ncccc1OCCn1cccn1 | 10.9 |
| CCn1c(S)nc2ccsc2c1=O | -2.86 |
| Cc1csc(C2C(=O)NC(S)=C(C#N)C23CCCCC3)n1 (centres unmarked) | 2.61 |
| CN(Cc1cccc(F)c1)C1CCOC1=O (centres unmarked) | 2.06 |
| Cc1ccc(C=CC(=O)N2CCCC(C(=O)O)C2)o1 (centres unmarked) | 3.06 |
| O=C(NCC12CCCN1CCC2)c1cccc(S(=O)(=O)F)c1 | 86.4 |
| CCC(NC(=O)c1cccnc1S)c1c(C)noc1C (centres unmarked) | 8.89 |
| Cc1ccccc1CC(=O)NNC(=O)CCl | 24 |
| C=CC(=O)Nc1cccc2c1N(C(C)=O)CC2 | 4.01 |
| CN(C)c1nc(CNC(=O)c2ccc(C#N)[nH]2)cs1 | 6.61 |
| O=C(CN1CCSC1=O)Nc1cc(Cl)cc(Cl)c1 | 0.338 |
| CN(C)c1cnc(C#N)cn1 | -1.78 |
| CC1(C)OB(c2ccc3c(c2)NC(=O)C3=O)OC1(C)C | 9.64 |
| O=C(CC1OCCCO1)N1CCSC2CCCCC21 (centres unmarked) | 19 |
| CC1(C)OB(c2ccc(F)c(CN)c2)OC1(C)C.Cl | 3.76 |
| C=CC(=O)NCCC1C[C@@H]2C=C[C@H]1C2 (some centres unmarked) | 5.8 |
| N#CC(=CC1CC=CCC1)C(N)=O (centres unmarked) | 1.65 |
| N#CC(=Cc1cccnc1)C(=O)Nc1ccc(F)cc1 | 3.53 |
